Article PMC4242493
The other results are listed elsewhere or left out. The list includes weakly bound sequences.

Biological target: MaxL homodimer (UniProt P61244)
Test: universal protein-binding microarray (PBM)
Settings: PBS-based mixture, 10 nM His-tagged protein dimer, 2% milk, 200 ng/uL BSA, 50 ng/uL salmon testes DNA, 0.02% TX-100; detection with Alexa 488 anti-His …; high values mean tight binding; most listed sequences are background and not binding sites; double strand, one strand shown

Sequence of UniProt P61244 (P61244 whole entry): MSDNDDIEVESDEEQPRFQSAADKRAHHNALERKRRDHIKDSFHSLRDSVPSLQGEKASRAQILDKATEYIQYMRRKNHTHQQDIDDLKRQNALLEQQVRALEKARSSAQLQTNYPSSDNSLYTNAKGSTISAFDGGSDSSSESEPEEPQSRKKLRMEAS

Sequence | binding signal (normalized occupancy)
GGGGAACC | 0.0765
GCCTCGCA | 0.0754
AACAAAGT | 0.0719
GGTAGTCA | 0.0743
CGCCCAAC | 0.0729
CAGAGAAC | 0.0692
GCATATAC | 0.08
CCCAAGCG | 0.0709
CTTTTCGC | 0.0706
TGAGCTAA | 0.0823
GTCCGCGA | 0.0687
CGCAATCC | 0.0789
AGAACCTA | 0.0874
CCCCTTAC | 0.0812
ATTCGCTG | 0.0739
TGCAGCCA | 0.0797
CCGTCCTC | 0.0798
AAGTGAGT | 0.0741
ATATGTAG | 0.0877
AGCCTTGA | 0.0712
TACAGACA | 0.0803
ACCTGTGG | 0.0787
ATGGGCGC | 0.0724
ACAGAATG | 0.076
CCATAGTC | 0.0746

Sequence | binding signal (normalized occupancy)
ATCAATAC | 0.0782
CATACTGC | 0.076
AACGGTTC | 0.0714
ATTCCTGG | 0.0767
GATTCATA | 0.0895
GCTCTGTA | 0.0761
AGCTCATC | 0.0724
CTACTTGA | 0.0752
GGGACTAA | 0.0713
TCACGCAA | 0.0764
ACCATCGT | 0.0731
GTAAAAAC | 0.0756
ATCATGCA | 0.0894
AGGGTCAA | 0.0739
GTTTTACA | 0.078
ATACCAAC | 0.0854
ACCGGTGA | 0.0754
CCGTTAAC | 0.0763
AAGGACTA | 0.0776
CAAATAAC | 0.0791
ACGTTGAC | 0.0793
AGGTCATC | 0.0756
ACCTCTTA | 0.0702
AATACGCA | 0.0742
CCTGGCTA | 0.0744

Sequence | binding signal (normalized occupancy)
GAGAGGTA | 0.07
ATGTGGGC | 0.0919
GCTATCAC | 0.0795
CTGCTGGA | 0.0659
AAAAAAAA | 0.0744
GCACCACA | 0.0811
ACCGGAAA | 0.069
TAGGTATA | 0.0792
AAGAAGTC | 0.0701
CGACGCGA | 0.0735
GCGCGCCC | 0.0752
GCGCCGAA | 0.0677
TTAACAAA | 0.0691
AGCGATAC | 0.0737
GCTAGCAA | 0.0714
AAAAAGTC | 0.0705
GGTAATAA | 0.0819
AGCGTACA | 0.0796
CCCATACG | 0.0864
ATTTAGCG | 0.0772
CCCTCACC | 0.082
ATATAAGC | 0.0774
AATTTTGC | 0.0704
AAGATCTT | 0.0757
CGTCGCCA | 0.0755

Sequence | binding signal (normalized occupancy)
AGCTGAAC | 0.0705
AAACAAGG | 0.0761
TCGTTGAA | 0.074
CGCCTGCC | 0.0737
GCACTCGA | 0.0743
CCGCATCA | 0.0853
ATTCGGGA | 0.074
CCCGGGAC | 0.0661
AGCCACTA | 0.0753
CCGGTTGA | 0.0676
TAGGCGGA | 0.0713
CCAAATAA | 0.0748
CGCACTGC | 0.0783
GAGATCCC | 0.0743
GCAATACC | 0.0814
CGCGGGAA | 0.0721
AGTAACGA | 0.0728
CGCAATGC | 0.0771
CAGGGCGC | 0.0699
GCTTCTAA | 0.0787
GGTCAAAA | 0.0804
CGTTCGAA | 0.0691
AGACTCAA | 0.0715
CGGAGAAC | 0.0716
ATATTGTG | 0.0839

Sequence | binding signal (normalized occupancy)
ACGTGATA | 0.11
CGTGGCCC | 0.0814
CACCGTAG | 0.0674
GACAGTGA | 0.0726
CATGACCG | 0.0795
AGTTTCAC | 0.0734
GTCTAACA | 0.0809
TATTAAAA | 0.0724
CACCCCAG | 0.0797
CGTTGCAC | 0.0764
GAGGGCTA | 0.0757
ACAACGTA | 0.077
GAGTTTTA | 0.0722
AAGTAACA | 0.0792
CAGGACAC | 0.0796
GACAGGAA | 0.0709
ACAGCTGG | 0.0716
CAGCTTAA | 0.0688
AATGTAAA | 0.0767
CACGCGCG | 0.133
CGACTGGC | 0.0665
CCTGCCTA | 0.0773
TCATGTCA | 0.0863
AACCCGTG | 0.0816
GTATTCGA | 0.0788

Sequence | binding signal (normalized occupancy)
AACCTGGG | 0.0724
ACACGTTC | 0.102
GCTTTTAA | 0.0711
ATCATGCG | 0.105
GCACACCC | 0.0923
AATGTCGC | 0.0811
CACCGGGG | 0.0704
CTATTATA | 0.0793
CGGCGACG | 0.0681
AGTCCCGG | 0.0647
CAGATTGG | 0.0718
CACTAGTG | 0.0745
ACGGGTCG | 0.0755
CCCGGAGC | 0.0663
AAACCTAA | 0.0767
TAACTAGA | 0.0765
GGATTGGA | 0.0752
AACATCGC | 0.0768
AGCCCTTG | 0.0731
GCTCGCCC | 0.0696
CATTTCGG | 0.0712
CAGGTACA | 0.0806
ATATGTAC | 0.0941
CTGTTCTC | 0.0736
CCGTGCGA | 0.0776

Sequence | binding signal (normalized occupancy)
ACTTATTC | 0.0737
GCCAACTA | 0.0719
AAAATCCA | 0.0778
ATACGCCC | 0.0761
ACAGAGCA | 0.0728
CCTGTACG | 0.0725
ACTAACAC | 0.0782
TAAATAAA | 0.0766
AGCTAACT | 0.0663
CTGACTCC | 0.0757
CGCAGCCC | 0.0668
CGAGTTGC | 0.0732
ACTGGCTA | 0.07
AGCGAATG | 0.0731
CGGCGGCC | 0.0722
AACTCTGA | 0.0654
CATTCACA | 0.086
ACCCTCGA | 0.0805
ATCTTAGC | 0.0785
CGAAGGCC | 0.0659
CACTTCTA | 0.078
TGGCTGAA | 0.0759
CAGCTCTA | 0.0723
CACGCGAG | 0.111
GTGTTGTA | 0.0853

Sequence | binding signal (normalized occupancy)
CGCAAGCG | 0.0656
CACACTTC | 0.0843
CCGCAGGA | 0.0669
GGAAATAA | 0.0786
ATGATCCA | 0.082
AACGAACC | 0.07
GGTTGGCA | 0.0738
AATAATGC | 0.0789
ACCTGAGT | 0.0721
AACGGCAT | 0.0766
AAGTGTGA | 0.0854
CGCAGCGC | 0.0689
CTCCTGTA | 0.0767
ACTGGACC | 0.0684
CATCGGTC | 0.0723
CTGACGCC | 0.0722
ACGGTACC | 0.0705
GACATCAC | 0.0779
GGAGAACC | 0.0739
AACTCCAA | 0.0704
TATTAAGA | 0.0731
CCACGGAG | 0.0698
ACGAAGCA | 0.0771
ATACAAGA | 0.076
AAAATTTC | 0.0702

Sequence | binding signal (normalized occupancy)
CGCCCGGA | 0.068
CACCTTCA | 0.0758
AAAGCTGG | 0.0673
ACGCCTCT | 0.0792
CACGATAC | 0.0922
ATTGACGA | 0.0813
CATAGGAG | 0.0813
CCTTGTCC | 0.0743
AATCTCCC | 0.0748
CGCGTCTC | 0.0739
CTGTGAAC | 0.0752
CCCTTAAA | 0.0743
CTTTCGGA | 0.0677
CAACGTTC | 0.0755
CGGCTTAA | 0.0644
CGGTGAAA | 0.0722
CTCGTCGC | 0.0714
ACCGGCGG | 0.0729
CATACGAC | 0.0821
